Test results reported in the supplement of paper PMC11417369.
± gives the standard deviation of the averaged measurements. Some of the results follow.

System: PfAP2-LT AP2 domain (GST-tagged)
Assay: gcPBM binding intensity (ln(normalized median fluorescence intensity)); higher = stronger DNA binding
Procedure, shortened: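 GST-tagged P. falciparum DNA-binding domains, expressed in E. coli (about 25 μg on average), were applied for 1 h to an Agilent 4 × 180k array of primer-extended double-stranded 36-bp intergenic genomic probes plus negative controls. The binding buffer was 1× PBS with 1% milk, 0.2 mg/ml BSA, 0.5% salmon testes DNA and 0.03% Triton X-100. Bound protein was detected with Alexa488 anti-GST antibody and scanned at 488 nm. Binding intensity is the highest Masliner-normalised natural-log median intensity across replicate spots of either probe orientation.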

| Sequence | gcPBM binding intensity (ln) |
| --- | --- |
| ATATGTTTTAAGTGTACACATATAATGTATTTTGTT [CACACA_site4929] | 9.06 ± 0.4 |
| TTGCTCATTGAAATTATACACACCAAATATATAAAT [CACACA_site2482] | 8.74 ± 0.29 |
| AACCTATCTATAGGAACAATATATATATATATAATT [CACACA_negctrl_site1707] | 8.98 ± 0.33 |
| TATTATGCTATTTAATGTACGGAATTTATATATATA [XGTACX_site564] | 8.62 ± 0.42 |
| TTGCTTTTCATTTATTGTACATACCCAGTAGGATAA [XGTACX_site3939] | 8.62 ± 0.45 |
| GACATAGTATTAAGTTGTACATATATAAAAATAAAT [XGTACX_site1583] | 8.86 ± 0.48 |
| ATGTTTTCAAAAATAAAACATATAAATAAATAAATA [TGCATGCA_negctrl_site226] | 8.49 ± 0.55 |
| AATGTACACGCACCCACACACAAACAAATATAAATA [CACACA_site7319] | 9.79 ± 0.36 |
| TTACGAATGAATATATGTACATATATATATATATAT [XGTACX_site3790] | 9.875 ± 0.092 |
| CAACAACAAATGAGAAGTACATAAATATTAACAATA [XGTACX_site4625] | 8.9 ± 0.48 |
| TTATAATACCTACAAAGTACAAACTTAAATATGAAC [XGTACX_site5684] | 8.7 ± 0.42 |
| AAGCTTAAAAATGGGGGTACGTCATAGGGATTCAAC [XGTACX_site8080] | 9.01 ± 0.24 |
| AATATATAAACATATACACACAAAAACATATATATA [CACACA_site4855] | 9.21 ± 0.33 |
| TTTGACACAATATTTTGTACGAAACTATTAATTCAA [XGTACX_site4853] | 8.52 ± 0.52 |
| GCATACATCAAGCACACACACACACGCACACGCACA [CACACA_site6311] | 10.2 ± 0.19 |
| ACTACGAATGGTAGAGTGCAGTCTGGAGAAGAGTAC [GTGCAC_site9685] | 9.19 ± 0.45 |
| AAAAAAAAGAATTAGGCACACAATTTTAATATAGGA [CACACA_site1522] | 8.72 ± 0.58 |
| GTGAAGTTCAAAATATGTACTTATGTATGTATTTTT [XGTACX_site165] | 8.73 ± 0.42 |
| TTATGTTTCATAAAAAATTAATCAAACATATATAAG [CACACA_negctrl_site666] | 8.22 ± 0.46 |

| Sequence | gcPBM binding intensity (ln) |
| --- | --- |
| TATACATAGAAACACACACACATAAATAAATATATA [CACACA_site1342] | 9.74 ± 0.26 |
| TGGTATATAAAACACACACACATATGTATATATATA [CACACA_site926] | 9.63 ± 0.29 |
| CCTTAAATAATATATTCACACAATATAACAAAAATT [CACACA_site4892] | 8.7 ± 0.38 |
| AAAAAAAAAATTATATATATATCCCTTATTTTTTCT [TGCATGCA_negctrl_site151] | 8.56 ± 0.61 |
| CATACACAGAAACACACACACATATATACATATATA [CACACA_site1094] | 9.98 ± 0.24 |
| TCATATATATTGAAATGTACTTATTTTTTCCTCATA [XGTACX_site6526] | 8.5 ± 0.48 |
| TTACAAATGTAGAAAAGTACATATAATAATAATTTA [XGTACX_site3044] | 8.67 ± 0.44 |
| ATGGATAATAATAAGTGTACACATATATTTAGAAGA [XGTACX_site244] | 9 ± 0.45 |
| AAAAAAAAAAAAAGCACACACACATATGCGTATATA [CACACA_site953] | 9.38 ± 0.33 |
| TTTAAGCGTTCACTGCTGCACTTTTATGTTGTGACC | 9.12 ± 0.51 |
| ATTTGTATAATAAGTTGTACAATTCTTACAATATAA [XGTACX_site4164] | 8.55 ± 0.4 |
| GGTAGAAAATCAGTTAAACACACACCGAAAAAAAAA [CACACA_site8934] | 9.32 ± 0.46 |
| TAAATATAACAGAATAATATGTGGATTAATAAATGA [CACACA_negctrl_site438] | 8.71 ± 0.49 |
| ATATAATATGTTGAATGTACTTAAAAAAATGTATCT [XGTACX_site5385] | 8.73 ± 0.37 |
| AAAAAAAAAAAAAAAACACACATGTATACTAGAATA [CACACA_site7108] | 8.94 ± 0.48 |
| TTAAGTTACAATTCTCGTACACATTAAAAGAAAATT [XGTACX_site699] | 8.57 ± 0.39 |
| TATAAGAAATAAAACCTGATTATAAACCTGTAACCA [CACACA_negctrl_site1302] | 8.63 ± 0.37 |
| AAGGCAAACAGACACACACACATATATACCTATATA [CACACA_site7077] | 9.64 ± 0.35 |
| GTTATACACATTACATGTACAAAAGTTGCACTTCAT [XGTACX_site6023] | 9.02 ± 0.5 |

| Sequence | gcPBM binding intensity (ln) |
| --- | --- |
| GTTGCCATCATTTGGCGTACAGTCAAAACCAAATCT [XGTACX_site1398] | 8.56 ± 0.37 |
| TATAACATAAAACACACACACATACATACACAAAAA [CACACA_site1804] | 10.1 ± 0.15 |
| GTTATAAATAAATATACACACATATATAAAATACAT [CACACA_site7146] | 9.08 ± 0.37 |
| AAATTTTTTTTTTAATTTTTTATTTAAAAAAAATAT [TGCATGCA_negctrl_site174] | 8.06 ± 0.46 |
| CGCTTTATTTATATATGTACATATATATATATATAC [XGTACX_site5012] | 9.11 ± 0.35 |
| AAGAGCAACCAAATAGAAAAAGGAAAATAAAAGGAA [CACACA_negctrl_site100] | 8.84 ± 0.69 |
| TCCTATTTTATATAATGTACATAAATATATTACATA [XGTACX_site2720] | 8.6 ± 0.43 |
| TTTGTTCAATTTACATGTACAGATATAATCTAACAT [XGTACX_site370] | 8.84 ± 0.42 |
| TCTATTAAAACAAATTGTACTTATTGATAAAGAATA [XGTACX_site3645] | 8.21 ± 0.42 |
| ATTTTTATTTTATATACACACAATAATAATATAATA [CACACA_site4015] | 8.62 ± 0.36 |
| ATTATATTTTGTAAATGTACATTTATATATTTTGTA [XGTACX_site1226] | 8.84 ± 0.4 |
| AAAAAAAAAAAAAAAGCATGCACATATTATTTTTTT [TGCATGCA_site416] | 8.77 ± 0.26 |
| ATTCATAAACGTGTGTTAATATGAATTTAAACATAA [XGTACX_negctrl_site213] | 8.71 ± 0.46 |
| ATATAAATAAAATATACACACATAAATATAACGACA [CACACA_site1637] | 9.29 ± 0.42 |
| ACGAAGATTTATCTTGCACACGCAAAAAAAAAAAAA [CACACA_site7933] | 8.86 ± 0.46 |
| AACATTTCCTTTCTGTGTACATATAAACCCATCTAT [XGTACX_site2071] | 8.9 ± 0.47 |
| TTTAAAAAAAAAAATACACACATAAAAATTTTCAAA [CACACA_site703] | 8.55 ± 0.52 |
| TTATTTAAAAAATTTTTAAATATACAAAAAAAAAAA [TGCATGCA_negctrl_site464] | 8.03 ± 0.44 |
